Article PMC6919601, “Identification of Plasmodium dipeptidyl aminopeptidase allosteric inhibitors by high throughput screening” (PLoS ONE, 2019)
The campaign covered roughly 110,000 compounds. About 230 (0.21%) showed an effect of 50% or more. This is one part of the list.

Each molecule was assayed against DPAP1 (Plasmodium falciparum, UniProt Q8IIJ9) (assay: primary screen, percent inhibition; read by cleavage of a fluorogenic dipeptide substrate; higher = more effect of the substance).
Set-up: species or system P. falciparum D10 trophozoite lysates; single well
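Further: 30 min substrate incubation versus DMSO and 10 µM JCP410 controls.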

Chain of DPAP1 (Q8IIJ9 whole entry, looked up): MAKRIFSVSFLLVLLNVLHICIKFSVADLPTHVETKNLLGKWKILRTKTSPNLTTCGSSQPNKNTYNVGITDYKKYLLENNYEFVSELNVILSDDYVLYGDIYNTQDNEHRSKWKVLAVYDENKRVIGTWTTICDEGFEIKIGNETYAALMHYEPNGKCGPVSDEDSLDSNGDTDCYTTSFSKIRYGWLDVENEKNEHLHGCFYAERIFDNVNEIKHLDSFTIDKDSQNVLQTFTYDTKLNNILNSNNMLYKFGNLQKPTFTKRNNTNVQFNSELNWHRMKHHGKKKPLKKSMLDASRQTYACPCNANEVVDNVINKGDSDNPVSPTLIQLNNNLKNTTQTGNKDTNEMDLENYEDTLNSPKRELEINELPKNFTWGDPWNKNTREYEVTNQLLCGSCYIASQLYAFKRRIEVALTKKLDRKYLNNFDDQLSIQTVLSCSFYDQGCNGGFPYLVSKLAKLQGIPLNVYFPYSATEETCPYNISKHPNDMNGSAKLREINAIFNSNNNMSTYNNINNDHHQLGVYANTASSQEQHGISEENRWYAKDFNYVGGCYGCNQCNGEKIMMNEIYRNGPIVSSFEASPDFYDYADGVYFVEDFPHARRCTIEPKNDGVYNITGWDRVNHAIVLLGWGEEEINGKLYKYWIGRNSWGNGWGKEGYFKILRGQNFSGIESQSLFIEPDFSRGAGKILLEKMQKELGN

SMILES | % Inhibition @ 10 uM [%]
COc1ccc(CN2CN=C(Nc3nc(C)c4ccc(C)cc4n3)NC2)cc1 | 2.1
CCOCCCNC(=O)CN1N=C(c2ccccc2)CCC1=O | 3.79
CN1CC[C@@]2(O)CCCC[C@@H]2[C@H]1c1cccc(Cl)c1Cl | 2.76
CCOc1ccccc1-n1c(S)nnc1-c1cccnc1 | -3.21
COc1cccc(CN2CCc3c([nH]c4ccccc34)C2)c1 | 0.847
CC(=O)c1ccc(OCC(O)CN2CCN(CC(O)COc3ccc(C(C)=O)cc3)CC2)cc1 (stereo not shown) | -6.69
CCC(C)NS(=O)(=O)c1ccc(Br)cc1 (stereo not shown) | 3.98
CC(C)OCCCNS(=O)(=O)c1csc(C(N)=O)c1 | 1.13
CC(Cc1c[nH]c2ccccc12)NC(=O)c1ccco1 (stereo not shown) | 3.16
CCN(CC)CCC(=O)OC1CC2CCC(C1)N2C (stereo not shown) | -2.42
CCCCOC(=O)c1c(O)nc(C)c(Cl)c1C | 0.503
CC1Nc2sccc2C(=O)N1c1ccccc1 (stereo not shown) | 1.15
CC(CCN1CCN(c2ccc(F)cc2)CC1)c1ccccc1 (stereo not shown) | -4.04
Cc1nn(C)c(C)c1/C=C(/C(=O)C(C)C)n1cncn1 | 0.00706
CCC(C)N1C(=O)S/C(=C/c2ccc(N(CC)CC)o2)C1=O (stereo not shown) | 3.8
CC(C)(CNC(=O)c1cccc(F)c1)CNC(=O)c1cccc(F)c1 | 0.795
COc1ccc(Cl)cc1-n1c(S)nnc1-c1cc2occc2n1C | 1.72
COc1cccc(C2C(C(=O)c3cccs3)=C(O)C(=O)N2CCc2ccccc2)c1 (stereo not shown) | 1.27
Cn1cccc1-c1nc2ccccc2n1C | -0.891
CCCCNCCP(=O)(O)OCC | 2.41
CCCC(=O)Nc1ccc(S(=O)(=O)N2CCCCCC2)cc1 | -2.24
Cc1cc2c(cc1C)-c1nnc(C(F)(F)F)n1C(C)(C)C2 | 4.38
CC1CCN(S(=O)(=O)c2ccc3nc(O)cc(C(=O)NCCN4CCOCC4)c3c2)CC1 | -0.519
CCOc1ccc2nc(NC(=O)c3cccnc3)sc2c1 | -0.28
OCCN1CCN(CC#CCC(c2ccccc2)c2ccccc2)CC1 | 0.774

SMILES | % Inhibition @ 10 uM [%]
Cc1ccc(S(=O)(=O)NCc2ccc(C(=O)NCCN(Cc3ccccc3)C(C)C)cc2)cc1 | -4.53
Cc1ccc(CS(=O)(=O)Cc2ccc(C(=O)NCC3CCCO3)o2)cc1 (stereo not shown) | -4.83
O=C(O)CC(NC(=O)c1ccco1)C(=O)O (stereo not shown) | -5.35
O=C1NC(c2ccccc2)C(C(=O)c2cccs2)C(O)(C(F)(F)F)N1 (stereo not shown) | -4.16
Cc1cccc(CCNC(=O)c2cc3c(O)nc4ccccc4c3n2C)c1 | 5.21
CC1=CC(C)(C)N(C(=O)CN2C(=O)c3ccccc3C2=O)c2ccccc21 | 0.317
Cc1nccc2nc(O)c(C(=O)NCc3ccc(Cl)cc3)cc12 | -2.14
CCc1cc2c(cc3c(=O)n(CC(=O)N4CC(C)CC(C)C4)nc(CC)n32)s1 (stereo not shown) | 4.84
COc1ccccc1CN1CCN(Cc2c[nH]c3ccccc23)CC1 | 18.5
CC(=O)Nc1ccc(S(=O)(=O)NCC2CCCO2)cc1 (stereo not shown) | -3.97
Cc1ccsc1C1CC(=O)NC(SCC(=O)Nc2ccc(Br)cc2)=C1C#N (stereo not shown) | 0.673
COc1ccccc1CNC(=O)c1cnn2c(C(F)F)cc(-c3ccc(C)cc3)nc12 | 2.22
COc1ccc(C(=O)Nc2nc(-c3nnn(-c4cc(Cl)ccc4OC)c3C)ns2)cc1 | 6.57
CC(NC(=O)CCC(=O)Nc1ccccc1O)c1ccccc1 (stereo not shown) | -3.25
CCCC1CCC(c2nc(-c3ccc(OC(F)F)cc3)no2)CC1 (stereo not shown) | -0.693
CCOc1ccccc1NC(=O)CSCC(=O)Nc1ccc(C)cc1 | -1.61
COc1ccc(/C=C2\CCCC(C(=O)C(F)(F)F)=C2O)cc1 | -0.169
Cc1ccc(-c2cc(C(=O)Nc3ccccc3F)c3ccccc3n2)o1 | -6.59
O=C(N[C@@H](CCc1ccccc1)C(=O)c1nc2ccccc2o1)[C@H](CS(=O)(=O)Cc1ccccc1Cl)NC(=O)N1CCOCC1 | -0.214
COc1ccc2[nH]c(C)c(CCNCc3cccc(OC)c3OC)c2c1 | -7.5
N#Cc1ccccc1CSc1nnc(N)s1 | 2.8
COc1ccc(NC(=O)CN(c2ccc(C34CC5CC(CC(C5)C3)C4)cc2)S(C)(=O)=O)cc1 | 2.91
Cc1nc(C(=O)c2ccccc2C(F)(F)F)cc2c1[nH]c1ccccc12 | 1.42
Cc1ccc(-c2nc3ccccc3c(=O)n2-c2cccnc2)cc1 | 4.74
CC(CNc1nc2ccccc2c2nc(-c3cccnc3)nn12)c1ccccc1 (stereo not shown) | 2.6

SMILES | % Inhibition @ 10 uM [%]
COCCCNc1oc(-c2ccc(C)cc2)nc1C#N | -1.33
O=C(Nc1cccc(NC(=O)C2CC2)c1)C1CC1 | -7.15
Cc1cccc2sc(NC(=O)C3CCCN(S(=O)(=O)c4cccc5nonc45)C3)nc12 (stereo not shown) | -9.42
COc1cc(S(=O)(=O)N2CCc3ccccc3C2)c(OC)cc1Cl | -3.13
COc1ccc(C(=O)O)cc1COc1ccccc1Br | -10.9
c1ccc(-c2nc3sc4c(N5CCOCC5)ncnc4c3c3c2CCCC3)cc1 | -3.13
CCCCNC(=O)COCc1cc(-c2ccc3c(c2)OCO3)on1 | 2.87
COCCNC(=O)Cn1ncc2c(C)n(Cc3ccc(F)cc3)c(C)c2c1=O | -0.447
O=C(NC1CCCCC1)c1cc(-c2ccncc2)nc2ccc(S(=O)(=O)N3CCOCC3)cc12 | 2.35
O=C(Cn1nc(-c2ccccc2)c2ccccc2c1=O)N1CCC(Cc2ccccc2)CC1 | -6.78
COC(=O)Nc1sc2c(c1C(N)=O)CCCCCC2 | 33
CCc1ccc(NC(=O)C23CCC(C)(C(=O)C2=O)C3(C)C)cc1 (stereo not shown) | 6
COc1ccc(NC(=O)c2cccc(OC(F)F)c2)cc1OC | 1.38
CN(C)c1ccc(/C=C2\SC(N3CCCCC3)=NC2=O)cc1 | 16.5
CC1CC(=O)C2=C(C1)OC(N)=C(C#N)C2c1ccc(C(F)(F)F)cc1 (stereo not shown) | -3.13
COc1cc(NS(=O)(=O)c2ccc(Nc3nc(-c4cccnc4)cs3)cc2)nc(OC)n1 | 11.2
CCOc1ccc(C2C(C#N)=C(N)N(c3ccc(C)cc3)C3=C2C(=O)CCC3)cc1 (stereo not shown) | -4.48
C#CCOc1ccc(/C=C2/NC(=O)N(CC)C2=O)cc1OCC | -9.36
CC(NC(=O)C1CC(c2ccc(F)cc2)=NO1)c1ccccc1 (stereo not shown) | -2.16
Cc1cc(/C=C2/C(=N)N3C(=NC2=O)SN=C3S(=O)(=O)CC(C)C)c(C)n1-c1ccccc1 | -1.58
CCOc1cc(C2CC(=O)NC3=C2C(=O)CC(C)(C)C3)cc(Br)c1O (stereo not shown) | 1.31
CC(C)NC(=O)Cn1ccc2cc(S(=O)(=O)N3CCCCC3)ccc21 | -2.39
FC(F)Oc1ccccc1C1CC(c2ccc(Br)s2)Nc2ncnn21 (stereo not shown) | 0.219
O=C(C1CC2CCC1C2)N1CCN(C(=O)C2CC3CCC2C3)CC1 (stereo not shown) | 5.51
O=C(O)/C=C/C(=O)OCC1CCCO1 (stereo not shown) | -2.66

SMILES | % Inhibition @ 10 uM [%]
CCC(=O)Nc1nn2c(-c3ccc(C)cc3)nnc2s1 | -1.26
CN(C)CCN(Cc1ccccc1)Cc1cccc(Cl)c1 | -2.34
COc1cccc(/C=C2/N=C(c3cccc4ccccc34)OC2=O)c1OC | 3.9
Cc1ccccc1S(=O)(=O)Cc1ccc(C(=O)n2ccnc2)o1 | -4.53
Cn1c2ccccc2c2c(C(=O)NCC3COc4ccccc4O3)cn(C3CCCC3)c(=O)c21 (stereo not shown) | -5.27
OCCN1CCN(Cc2cc(F)ccc2F)CC1 | 1.9
COc1ccccc1/C=C/C(=O)c1cc2c(nc1C)CCCC2 | -3.79
Cc1ccc(S(=O)(=O)N(CC(=O)NCCc2ccccc2)Cc2ccccc2)cc1 | -7.18
O=C(Nc1nc(C23CC4CC(CC(C4)C2)C3)cs1)c1ccc2c(c1)OCO2 | 9.11
O=C(c1ccc([N+](=O)[O-])o1)N1CCN(C(=O)c2ccc([N+](=O)[O-])o2)CC1 | -0.216
O=C(Cn1cc2c(n1)CCCC2)NCc1ccc2c(c1)OCO2 | 0.137
CCOC(=O)C1=C(C)N=c2s/c(=C\c3cccc(O)c3)c(=O)n2C1c1cc(OC)ccc1OC (stereo not shown) | -0.339
COc1ccc(NC(=O)CN(c2cc(C)ccc2OC)S(C)(=O)=O)cc1 | -0.796
N#CC1=C(SCc2ccccc2)NC(=O)CC1c1cccc2ccccc12 (stereo not shown) | -0.294
Fc1ccccc1-n1nnnc1SCc1ccc(Cl)cc1Cl | 2.94
C=CCn1c(SCc2c(C)noc2C)nc2sc(-c3ccccc3)cc2c1=O | -7.23
Oc1ncc(COCC(F)(F)C(F)F)c(O)n1 | -5.42
COc1ccc(C(=O)/C=C/c2ccc(N3N=C(c4ccccc4)CC3c3ccccc3)cc2)cc1 (stereo not shown) | -5.23
COc1ccc(C(=O)/C=C/c2ccc(-c3ccc(OC)cc3)o2)cc1 | 3.34
Nc1ncnc2c1ncn2CC(O)CO (stereo not shown) | -4.27
CCOC(=O)N1CCC(NC(=O)Cn2c3ccccc3c3cnnc(O)c32)CC1 | 3
C=CCOc1cccc(C2c3c(n[nH]c3-c3cc(C)ccc3O)C(=O)N2CCO)c1 (stereo not shown) | -6.64
CC1=NC2=C(C(=O)CC(C)(C)C2)C(c2cccc(Cl)c2)/C1=C(\O)OC(C)C (stereo not shown) | -2.18
Cc1ccc(S(=O)(=O)NCCOc2nc(N3CCOCC3)nc(N3CCOCC3)n2)cc1 | 5.5
COc1ccccc1N1CCN(Cc2cccc(O)c2)CC1 | 1.4
